From PubChem BioAssay AID2202238 (Ras Initiative Chemistry Research Team, Frederick National …, 2025)
The list shows a part of the results. Shown are side measurements of this screen, not its main read-out; they come without a call.

Molecular target: GTPase KRas (Homo sapiens) (UniProt P01116)
Assay: Fragment capture on engineered cysteines, share of protein labelled (AID 2202238)
Set-up: protein at 5 µM with 500 µM competing thiol for 1.5 h
Conditions: KRAS G12D cysteine mutants, disulfide tethering, MALDI-TOF labeling, stronger effect = higher value, fragment at 500 µM
[1] = measured here: G60C mutant labeling
[2] = measured here: G75C mutant labeling
[3] = measured here: H94C mutant labeling
[4] = measured here: I36C mutant labeling
[5] = measured here: L120C mutant labeling
[6] = measured here: M67C mutant labeling
[7] = measured here: M72C mutant labeling
[8] = measured here: N26C mutant labeling
[9] = measured here: N86C mutant labeling
[10] = measured here: P121C mutant labeling
[11] = measured here: S122C mutant labeling
[12] = measured here: S136C mutant labeling

Sequence of UniProt P01116 (P01116 whole entry, looked up, the tested form may be a part): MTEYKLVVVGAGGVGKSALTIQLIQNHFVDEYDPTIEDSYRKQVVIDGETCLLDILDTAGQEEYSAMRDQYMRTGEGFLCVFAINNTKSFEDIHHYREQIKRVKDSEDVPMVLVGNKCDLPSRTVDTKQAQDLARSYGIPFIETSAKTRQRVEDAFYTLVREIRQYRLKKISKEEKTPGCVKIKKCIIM

SMILES | percent labeling [1] | percent labeling [2] | percent labeling [3] | percent labeling [4] | percent labeling [5] | percent labeling [6] | percent labeling [7] | percent labeling [8] | percent labeling [9] | percent labeling [10] | percent labeling [11] | percent labeling [12]
Cc1cc(C)n2nc(CC(=O)NCCS)nc2n1 | 22.9% | 10% | 24% | 20.3% | 53.9% | 26.6% | 15.8% | 31.5% | 21.2% | 28.4% | 30.5% | 39%
Cc1nc(C2CCN(C(=O)CCS)CC2)no1 | – | 11.5% | 30.5% | 32% | 33% | 30.8% | 16.2% | – | 22.4% | 29.6% | 33% | 53.6%
O=C(NCCS)c1ccc2nnc(-c3ccccc3)n2c1 | 38.3% | 19.1% | 28.1% | 33.2% | 24.6% | 32.6% | 50.7% | 45.3% | 17% | 20% | 20% | 53.3%
Cc1nn(C)c(C)c1CC(=O)N1CCC(C(=O)NCCS)CC1 | 22.7% | 10.4% | 30.3% | 22% | 22.5% | 27% | 14.5% | 34.6% | 18.4% | 24.4% | 20.5% | 43.4%
O=C(CCS)N1CCC(c2nc(-c3ccc(F)cc3)no2)(C(F)(F)F)C1 (centres undefined) | – | 7.1% | 20.5% | 8.7% | 7.7% | 8.2% | 25.2% | – | 9.8% | 15.8% | 5.5% | 16%
Cc1nc2c(cc(OCCNC(=O)CCS)c3ccsc32)s1 | – | 10.8% | 13% | 12.1% | 7.3% | 9.5% | 29.3% | – | 11.4% | 7.5% | 4.6% | 9.5%
Cc1cccc(NCC2CCCN2C(=O)CCS)n1 (centres undefined) | – | 15.1% | 44.4% | 43.9% | 29.7% | 51.4% | 33% | – | 26.7% | 30.1% | 31.2% | 71%
O=C(NCCS)C1CCN(C(=O)c2ccccc2)C1 (centres undefined) | 37.3% | 13.5% | 33.9% | 37.5% | 44.1% | 57.9% | 31.7% | 44.9% | 26.5% | 36.1% | 36.4% | 57.2%
Cc1ccc(Nc2nccc(C(F)(F)F)n2)cc1C(=O)NCCS | 16.9% | 7.1% | 6.7% | 5.4% | 7.4% | 4.9% | 35% | 27.5% | 3.7% | 4.7% | 2.7% | 5.4%
Cc1nc2cc(F)cc(C(=O)NCCS)c2nc1C | 21% | 11.5% | 28% | 23.5% | 19.7% | 29.9% | 32.8% | 24.4% | 10.8% | 15% | 14.1% | 32.2%
O=C(CCS)N1CCC(c2cc(CO)on2)CC1 | – | 12.4% | 29.8% | 32.9% | 31.8% | 36% | 20.2% | – | 20.5% | 33.4% | 39.7% | 53.4%
O=C(CCS)N1CCc2c(nc[nH]c2=O)C1 | – | 12.3% | 23.9% | 36.7% | 18.1% | 26.4% | 18.6% | – | 26.9% | 29.8% | 58.1% | 55%
Cc1cc(C)n(C2CN(C(=O)CCS)C2)n1 | – | 11% | 30.3% | 36.7% | 19.4% | 36.6% | 20.8% | – | 17.8% | 31.3% | 31.3% | 46.5%
O=C(NCCS)c1c(Cl)cnn1C1CCCC1 | 38.6% | 19.4% | 23.8% | 18.4% | 21% | 21.4% | 31.8% | 30.8% | 11.7% | 17.1% | 18.5% | 35.3%
CC(C)CN(Cc1ccccn1)C(=O)CCS | – | 18.6% | 40.6% | 41.4% | 32.3% | 43.7% | 38.3% | – | 29.3% | 43.4% | 43.8% | 69%
